# Over roughly 33,000 sequences, “E-score (dimensionless, -0.5 to 0.5)” has its median near -0.058; the highest 2% begin near 0.35. The list shows a part of the results.
# Tested on: MvaT
# Assay: PBM 8-mer E-score (mean of HK and ME arrays) (E-score (dimensionless, -0.5 to 0.5)); higher = stronger relative binding preference; most listed sequences are background and not binding sites
# Outline: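 Full-length P. aeruginosa MvaT, with glutathione S-transferase fused to its N-terminus (cloned into pTH6838 by isothermal assembly), was tested by protein binding microarray using a previously described protocol. Two universal double-stranded 60-mer arrays (ME and HK) were used, each with a constant 25-mer primer region and a variable 35-mer region covering all 8-mers. The rank-based 8-mer E-score (-0.5 to 0.5) is the mean of the two arrays, parsed with a custom Python script.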
row,Sequence,PBM 8-mer E-score
1,CATGCGAA,0.0317
2,ACGCCAAT,0.127
3,CCTCGCAG,-0.152
4,AATAGACG,0.156
5,ATTGTGAG,0.0655
6,CTACTGCA,0.0177
7,ATCACTGA,0.0221
8,ATCGTCAG,-0.109
9,GAAATATA,0.408
10,CAAGAGAG,-0.194
11,CGCCTGTC,-0.262
12,CAGTCAGG,-0.208
13,AACCACAG,-0.111
14,GTCGAGGA,-0.213
15,ACCATGCC,-0.126
16,TAGATACA,0.215
17,AAGGCGTC,-0.217
18,ACGAAATA,0.228
19,GCCGTACC,-0.332
20,CAGGCCGG,-0.188
21,GTAGCTTA,0.0787
22,CATCCTCC,-0.269
23,AGAACTTG,0.214
24,AATGGCTG,-0.126
25,CGCGGCCA,-0.223

row,Sequence,PBM 8-mer E-score
1,CCGCATTC,-0.0277
2,ACCACTCA,0.157
3,CCTCGCCC,-0.18
4,CAACCCTA,0.00225
5,ATAGTCGC,0.0285
6,CGTGGCTC,-0.246
7,ATGTGAGA,0.0227
8,ATTACTCG,0.169
9,ATACTGTG,0.129
10,ATCATTAC,0.235
11,CTTCTATC,-0.0521
12,CCGGCCTA,-0.174
13,AAGCCAGC,-0.0789
14,CAGCACAA,-0.0547
15,GTTGATTA,0.197
16,CTAATCAG,-0.0597
17,ACGGGGCT,-0.101
18,GAGGTAAC,-0.101
19,CCGCCATC,-0.256
20,TATCTACA,0.17
21,ACAAGAAC,0.0614
22,ACATGAAG,0.0813
23,CGCCCCAG,-0.332
24,CCTTGATC,-0.174
25,GAGCATGC,-0.235

row,Sequence,PBM 8-mer E-score
1,AGCGGCGG,-0.201
2,AGCATATA,0.383
3,CACAATGG,-0.181
4,CATCATTA,0.128
5,AGATACAA,0.144
6,GGGTCAGA,-0.206
7,CTCTACAA,0.0497
8,AACCGCAC,0.0379
9,CCAACTGC,-0.0852
10,ACAGCGGA,0.107
11,AAGCGGGA,-0.172
12,CACCGAGA,-0.183
13,GGTGCTAC,-0.243
14,CCGGATTA,0.132
15,AGCGGACC,-0.153
16,GATTAGAC,0.0487
17,GCACATGC,-0.0668
18,GAGTAAGC,0.0293
19,ATACTCAC,0.0719
20,CGTACATC,-0.023
21,ATGAGGGG,-0.304
22,GGCGTCAA,-0.0984
23,ACCCGCAT,-0.0917
24,ATTTTGTG,0.153
25,CCACAGCG,-0.201

row,Sequence,PBM 8-mer E-score
1,GCCCGCCA,-0.208
2,CAGCTTAG,-0.203
3,ATTTGCAC,0.144
4,CTGTCGCA,-0.0688
5,ATAACGGC,0.262
6,ATTGCTTA,0.224
7,ACCAGAAT,0.135
8,ACACATCG,-0.0363
9,CATAAACG,0.058
10,GATTGAAC,0.0162
11,ACGATATC,0.00546
12,CCCTTCCA,-0.295
13,AACCCCGC,-0.223
14,AATGCTCG,-0.0785
15,CAAAAACA,0.133
16,AATTGTTA,0.377
17,CAATAAAC,0.254
18,ACCCAACT,-0.0289
19,ATTGGTAC,0.139
20,ACCGATCA,0.0257
21,ACTTTGCA,0.19
22,TACTCAAA,0.0505
23,CCGTGTTC,-0.159
24,CCAGCCTA,-0.217
25,AACGAATC,-0.111

row,Sequence,PBM 8-mer E-score
1,TACATGCA,0.198
2,TGCGGAAA,0.107
3,CACTAGAG,-0.0838
4,AGTCGCGG,-0.0679
5,AACAGCGG,0.0925
6,TCTCGAAA,-0.106
7,CGGGCTAG,-0.148
8,GGTGGAAC,-0.14
9,ACGTTACA,0.136
10,AAGTTAAT,0.385
11,AAATTGTC,0.22
12,AAGTCCCG,-0.043
13,ACGAGAAA,0.0793
14,AGCTTTGC,-0.194
15,GAGCCTCC,-0.31
16,TAGATGCA,0.144
17,ACTGTTCC,0.0213
18,ACATATCC,0.16
19,CACTTGCG,-0.195
20,ACAAGCAG,0.0229
21,CAGTGGAG,-0.211
22,CGGCTTCA,-0.245
23,AGGCGTAG,-0.28
24,CGCTCGGC,-0.275
25,CCCGACCA,-0.23

row,Sequence,PBM 8-mer E-score
1,ATGTGCGC,0.00817
2,GTCCGCAC,-0.0655
3,AATAGAAA,0.29
4,CACAAAGC,-0.108
5,ACGGACGT,-0.231
6,CAATTGCA,0.112
7,GATGAGCA,-0.153
8,TCTGTCCA,-0.221
9,AGTCCCAT,-0.135
10,TCAGGGGA,-0.118
11,AAATCTCG,0.0799
12,AGAGTTTC,-0.0443
13,GAACCCTA,-0.122
14,CAGGAGTA,-0.0651
15,CGGATTTC,-0.0928
16,CCCCGCAA,-0.159
17,CCACCTTC,-0.11
18,CAGTGAGG,-0.304
19,GGTTCGAA,-0.0165
20,CCTCTCAA,-0.209
21,AGATGATA,0.14
22,AACCTAAA,0.135
23,CATTGCCG,-0.0568
24,AGTAGACA,-0.00875
25,CCCGTCAA,-0.031

row,Sequence,PBM 8-mer E-score
1,CACACTTC,0.227
2,AGGTACGA,-0.137
3,GAAGCCAC,-0.132
4,AAACAGCT,0.123
5,GAAGCAGA,-0.113
6,GATGAATA,0.248
7,AGTGGGTG,0.00832
8,AACCCTGG,-0.22
9,ACATATCT,0.311
10,ACTTAGCC,0.0311
11,CGCTGTTA,0.0457
12,AATGTGTG,0.0292
13,CCTTGACA,-0.0472
14,CTTTTTGA,0.11
15,AACAAAGG,0.136
16,CCGACTTA,0.0502
17,CCACCACA,0.0416
18,GTGTCGAA,-0.24
19,AGAGTCAG,-0.161
20,ATTGTGTA,0.188
21,AGCAGGAG,-0.358
22,GGAAAACC,-0.176

# — the supplement of paper PMC4466236
